The subject of the experiment is TYKNU. Briefly: fractional viability relative to vehicle; TYKNU is a high-grade serous ovarian cancer line; higher = less growth inhibition. The note with it: 72 h. A digest of the protocol:
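TYKNU control cells or lentiCRISPRv2 knockout derivatives were seeded at 500 cells per well into drug-stamped 384-well plates holding a ~2100-compound library at 2 or 10 μM, in duplicate. Cells were grown at 37 °C in 5% CO2 in RPMI 1640 with 10% FBS, and drug treatment lasted 72 h. Viability was read by Cell Titer Glo luminescence. Duplicate treatment wells were averaged and normalised to duplicate control wells from the same plate position.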

Where [1] appears, read: 2uM, genotype: DNM1L knockout (sgDNM1L #1).
The mark [2] stands for this setting: 2uM, genotype: sgCTRLA1 (non-targeting control).
Setting [3] is: 10uM, genotype: DNM1L knockout (sgDNM1L #1).
Where [4] appears, read: 10uM, genotype: sgCTRLA1 (non-targeting control).

Molecules are shown by their SMILES. Where a name gives a salt, the structure may show the parent alone. The full ranking holds about 2,000 compounds; the median of “fractional viability relative to vehicle” is about 0.91, and the lowest 2% start at about 0.045. Some of the results follow.

Among the data in the supplement of paper PMC5919970 are fractional viability values, retold here.

Turning to `CCc1ccc(OCc2ccccc2C(=O)Nc2ccc3nc(C)cc(N)c3c2)cc1`, the fractional viability is, setting by setting: under setting [1], 0.117; under setting [2], 0.166; under setting [3], 0.0139; under setting [4], 0.00672.
For `CN(C)CCc1c[nH]c2ccc(CS(=O)(=O)N3CCCC3)cc12` [Almotriptan Malate] the same measures were 1.02, 1.18, 0.947 and 1.02.
Regarding `Cn1nc(C(C)(C)C)cc1C(=O)N[C@@H](Cc1cccc(Cl)c1)C(=O)NCC#N` [Cathepsin Inhibitor 1], the fractional viability was 1.08 under setting [1], 1.11 under setting [2], 0.773 under setting [3] and 1.05 under setting [4].
On to `Clc1cccc(CN=C2Nc3ccccc3NC23CCNCC3)c1` [Liproxstatin-1], for which the fractional viability runs as follows: under setting [1], 0.75; under setting [2], 0.957; under setting [3], 0.646; under setting [4], 0.651.
As to `CC(CNC(=O)c1cccnc1)NC(=O)c1cccnc1` (stereo unspecified) [Nicaraven], the fractional viability reads like this: under setting [1], 0.754; under setting [2], 1.07; under setting [3], 0.726; under setting [4], 0.99.
Turning to `O=C(Nc1ccccc1)N1CCN(c2nc(-c3ccccc3)ns2)CC1`, the fractional viability runs as follows: under setting [1], 1.06; under setting [2], 1.14; under setting [3], 0.828; under setting [4], 0.976.
On the same counts, the results for `Cc1cnc(NC(=O)Nc2cc(Br)c(C)cc2OC[C@@H]2CNCCO2)cn1` are 0.271, 0.253, 0.185 and 0.122.
On the same counts, the results for `Cc1ccc(Sc2cncc3sc(C(N)=O)cc23)cc1` are 1, 1.16, 0.952 and 1.26.
With `Cc1c(C(=O)Nc2ccc(N3C[C@@H](C)O[C@@H](C)C3)nc2)cccc1-c1ccc(OC(F)(F)F)cc1` [LDE225 (NVP-LDE225,Erismodegib)], the fractional viability runs as follows: under setting [1], 1; under setting [2], 0.948; under setting [3], 0.856; under setting [4], 0.869.
As for `Nc1cc(C(F)(F)F)c(-c2cc(N3CCOCC3)nc(N3CCOCC3)n2)cn1` [BKM120 (NVP-BKM120, Buparlisib)], the fractional viability stood at 0.213 under setting [1], 0.292 under setting [2], 0.112 under setting [3] and 0.108 under setting [4].
`O=c1cc(N2CCOCC2)oc2c(-c3ccccc3)cccc12`: the fractional viability is 1.16 under setting [1], 0.976 under setting [2], 0.985 under setting [3] and 0.969 under setting [4].
With `COc1cccc(-c2cc(F)ccc2C2Cc3nc(N)nc(C)c3C(=O)N2)n1` (stereo unspecified), the fractional viability by setting is: under setting [1], 0.241; under setting [2], 0.191; under setting [3], 0.227; under setting [4], 0.201.
For `Cc1ccc(Nc2nccc(N(C)c3ccc4c(C)n(C)nc4c3)n2)cc1S(N)(=O)=O` [Pazopanib] the same measures were 0.87, 0.956, 0.431 and 0.481.
On the same counts, the results for `CCc1ccc(/C=C2/SC(=S)NC2=O)cc1` are 0.804, 1.18, 0.842 and 1.06.
Take `COc1cc(Nc2ncc3c(n2)-c2ccc(Cl)cc2C(c2c(F)cccc2OC)=NC3)ccc1C(=O)O` [Alisertib (MLN8237)]: the fractional viability reads like this: under setting [1], 0.448; under setting [2], 0.516; under setting [3], 0.437; under setting [4], 0.527.
Consider `CCCCC(=O)N(Cc1ccc(-c2ccccc2-c2nnn[nH]2)cc1)[C@H](C(=O)O)C(C)C` [Valsartan], for which the fractional viability under setting [1] was found to be 0.97, the fractional viability under setting [2] came out at 1.14, the fractional viability under setting [3] is 0.887 and the fractional viability under setting [4] was determined as 1.11.
Consider `OCC(CO)N[C@H]1C[C@](O)(CO)[C@@H](O)[C@H](O)[C@H]1O` [Voglibose], for which the fractional viability stood at 0.971 under setting [1], 1.12 under setting [2], 0.93 under setting [3] and 1.05 under setting [4].
On to `Nc1ccc(/N=N/c2ccccc2)c(N)n1` [Phenazopyridine HCl], for which the fractional viability is, setting by setting: under setting [1], 0.99; under setting [2], 1.13; under setting [3], 0.921; under setting [4], 0.977.
On the same counts, the results for `CCC(=O)O[C@]1(C(=O)SCF)[C@H](C)C[C@H]2[C@@H]3C[C@H](F)C4=CC(=O)C=C[C@]4(C)[C@@]3(F)[C@@H](O)C[C@@]21C` [Fluticasone propionate] are 1.02, 1.08, 0.696 and 0.853.
`Cc1[nH]nc2ccc(-c3cncc(OC[C@@H](N)Cc4ccccc4)c3)cc12`: the fractional viability was 0.23 under setting [1], 0.212 under setting [2], 0.137 under setting [3] and 0.0399 under setting [4].
With `CC(C)[C@H](O)C(=O)N[C@@H](C)C(=O)N[C@@H]1C(=O)N(C)CCc2ccccc21`, the fractional viability is 1.04 under setting [1], 1.25 under setting [2], 0.949 under setting [3] and 1.15 under setting [4].
On the same counts, the results for `CCCc1cc2c(N3CCN(C4=NCC(C)(C)S4)CC3)ncnc2s1` [MI-2 (Menin-MLL Inhibitor)] are 0.919, 0.869, 0.747 and 0.665.
As for `CNCc1ccc(C)c(NC(=O)c2ccc(Nc3nc(-c4ccccc4)c4ccccc4n3)cc2)c1`, the fractional viability worked out at 0.752 under setting [1], 1.03 under setting [2], 0.0487 under setting [3] and 0.0706 under setting [4].
For `CCCCN1CCCC[C@H]1C(=O)Nc1c(C)cccc1C` [Levobupivacaine HCl], the fractional viability by setting is: under setting [1], 0.971; under setting [2], 0.957; under setting [3], 0.672; under setting [4], 1.05.
On the same counts, the results for `COc1cc(CCc2cc(NC(=O)c3ccc(N4CC(C)NC(C)C4)cc3)n[nH]2)cc(OC)c1` (stereo unspecified) are 1.27, 1.13, 0.294 and 0.312.
Turning to `Nc1ccc(C(=O)O)c(O)c1` [Sodium 4-Aminosalicylate], the fractional viability is, setting by setting: under setting [1], 1.17; under setting [2], 1.06; under setting [3], 0.909; under setting [4], 0.987.
Take `O=C(O)c1ccccc1Nc1cccc(C(F)(F)F)c1` [Flufenamic acid]: the fractional viability by setting is: under setting [1], 0.947; under setting [2], 1.18; under setting [3], 0.845; under setting [4], 1.16.
Regarding `Cc1cccc(C)c1OCC(=O)N[C@@H](Cc1ccccc1)[C@@H](O)C[C@H](Cc1ccccc1)NC(=O)[C@H](C(C)C)N1CCCNC1=O` [Lopinavir], the fractional viability by setting is: under setting [1], 1.04; under setting [2], 1.01; under setting [3], 0.751; under setting [4], 0.905.
On the same counts, the results for `O=C1O[C@H]([C@@H](O)CO)C(O)=C1O` [Vitamin C] are 0.908, 1.1, 1.02 and 0.971.
